In the test the target is EGFP-PDE6D (human) (UniProt O43924). The test can be described thus: co-IP; visible immunoprecipitation (VIP) assay followed by immunoblotting (anti-mChe, anti-GFP); lysates of HEK293T cells coexpressing two fluorescent fusion proteins; EGFP fusion precipitated with GST-fused anti-GFP nanobody prebound to glutathione-Sepharose beads; lysis buffer 50 mM HEPES pH 7.4, 100 mM KCl, 1 mM DTT, 5 mM NaCl, 3 mM MgCl2, 0.5% Triton X100, 10% glycerol. A general note: A western blot detects proteins with antibodies after separation by electrophoresis.

Results are given in words; binding and its absence hold for the method and conditions named. In cells and extracts the contact can be indirect. Where a sequence is shown, tags or fusion partners need not be part of it.

B1: mChe-fused INPP5E(1-626) (domain or fragment, UniProt Q9NRR6 1-626)
chain: MPSKAENLRPSEPAPQPPEGRTLQGQLPGAPPAQRAGSPPDAPGSESPALACSTPATPSGEDPPARAAPIAPRPPARPRLERALSLDDKGWRRRRFRGSQEDLEARNGTSPSRGSVQSEGPGAPAHSCSPPCLSTSLQEIPKSRGVLSSERGSPSSGGNPLSGVASSSPNLPHRDAAVAGSSPRLPSLLPPRPPPALSLDIASDSLRTANKVDSDLADYKLRAQPLLVRAHSSLGPGRPRSPLACDDCSLRSAKSSFSLLAPIRSKDVRSRSYLEGSLLASGALLGADELARYFPDRNVALFVATWNMQGQKELPPSLDEFLLPAEADYAQDLYVIGVQEGCSDRREWETRLQETLGPHYVLLSSAAHGVLYMSLFIRRDLIWFCSEVECSTVTTRIVSQIKTKGALGISFTFFGTSFLFITSHFTSGDGKVAERLLDYTRTVQALVLPRNVPDTNPYRSSAADVTTRFDEVFWFGDFNFRLSGGRTVVDALLCQGLVVDVPALLQHDQLIREMRKGSIFKGFQEPDIHFLPSYKFDIGKDTYDSTSKQRTPSYTDRVLYRSRHKGDICPVSYSSCPGIKTSDHRPVYGLFRVKVRPGRDNIPLAAGKFDRELYLLGIKRRISKEI
B1: the binding result is “no binding”.

(Values after paper PMC8496693.)
